Results published in patent US9873709B2 (priority 2013, dated 2018).

biological target: isolated recombinant JAK1 kinase domain (Homo sapiens (Human), UniProt P23458); conditions: read-out: JAK1 Ki
Sequence (P23458 875-1153): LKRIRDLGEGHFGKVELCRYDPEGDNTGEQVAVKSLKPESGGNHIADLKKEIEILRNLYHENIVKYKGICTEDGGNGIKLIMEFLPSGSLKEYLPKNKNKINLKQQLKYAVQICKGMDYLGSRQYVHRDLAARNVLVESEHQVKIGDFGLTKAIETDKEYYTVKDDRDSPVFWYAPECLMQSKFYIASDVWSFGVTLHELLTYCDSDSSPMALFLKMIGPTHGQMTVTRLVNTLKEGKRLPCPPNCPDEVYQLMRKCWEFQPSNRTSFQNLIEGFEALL

SMILES | Ki
CSc1ccc(C2(CO)CCN(c3cccn4nc(Nc5ccc(C(=O)N(C)C6CCN(C)CC6)cc5)nc34)CC2)cc1 [Example 1-251, 4-([8-[4-(hydroxymethyl)-4-[4-(methylsulfanyl)phenyl]piperidin-1-yl]-[1,2,4]triazolo[1,5-a]pyridin-2-yl]amino)-N-methyl-N-(1-methylpiperidin-4-yl)benzamide] | 0.61 nM
CN1CCC(N(C)C(=O)c2ccc(Nc3nc4c(N5CCC(CO)(c6ccc(C(F)F)cc6)CC5)cccn4n3)cc2)CC1 [Example 1-267, 4-[(8-[4-[4-(difluoromethyl)phenyl]-4-(hydroxymethyl)piperidin-1-yl]-[1,2,4]triazolo[1,5-a]pyridin-2-yl)amino]-N-methyl-N-(1-methylpiperidin-4-yl)benzamide] | 0.42 nM

same assay, conditions: read-out: JAK1 Ki; isolated recombinant JAK1 kinase domain, 25 μM ATP

SMILES | Ki
O=C(c1ccc(Nc2nc3c(N4CCC(O)(c5ccc(Cl)cc5)CC4)cccn3n2)cc1)N1CC2CNCC(C1)O2 [Example 1-239, [4-[[8-[4-(4-chlorophenyl)-4-hydroxy-1-piperidyl]-[1,2,4]triazolo[1,5-a]pyridin-2-yl]amino]phenyl]-(9-oxa-3,7-diazabicyclo[3.3.1]nonan-3-yl)methanone] | 3.55 nM
NCC12CC(CN1C(=O)c1ccc(Nc3nc4c(N5CCC(O)(c6ccc(Cl)cc6)CC5)cccn4n3)cc1)C2 [Example 1-240] | 3.72 nM
O=C(c1ccc(Nc2nc3c(N4CCC(O)(c5ccc(Cl)cc5)CC4)cccn3n2)cc1)N1CC[C@H]2CNC[C@H]21 [Example 1-241, [(3aS,6aS)-3,3a,4,5,6,6a-hexahydro-2H-pyrrolo[2,3-c]pyrrol-1-yl]-[4-[[8-[4-(4-chlorophenyl)-4-hydroxy-1-piperidyl]-[1,2,4]triazolo[1,5-a]pyridin-2-yl]amino]phenyl] methanone] | 1.63 nM
O=C(c1ccc(Nc2nc3c(N4CCC(O)(c5ccc(Cl)cc5)CC4)cccn3n2)cc1)N1CCO[C@@H]2CNC[C@H]21 [Example 1-242, [(4aR,7aR)-3,4a,5,6,7,7a-hexahydro-2H-pyrrolo[3,4-b][1,4]oxazin-4-yl]-[4-[[8-[4-(4-chlorophenyl)-4-hydroxy-1-piperidyl]-[1,2,4]triazolo[1,5-a]pyridin-2-yl]amino]phenyl] methanone] | 2.51 nM
O=C(c1ccc(Nc2nc3c(N4CCC(O)(c5ccc(Cl)cc5)CC4)cccn3n2)cc1)N1CCO[C@@H]2CNC[C@@H]21 [Example 1-243, [(4aS,7aR)-3,4a,5,6,7,7a-hexahydro-2H-pyrrolo[3,4-b][1,4]oxazin-4-yl]-[4-[[8-[4-(4-chlorophenyl)-4-hydroxy-1-piperidyl]-[1,2,4]triazolo[1,5-a]pyridin-2-yl]amino]phenyl] methanone] | 2.52 nM
O=C(c1ccc(Nc2nc3c(N4CCC(O)(c5ccc(Cl)cc5)CC4)cccn3n2)cc1)N1CCOC2CCNCC21 (stereo not drawn) [Example 1-244, 2,3,4a,5,6,7,8,8a-octahydropyrido[4,3-b][1,4]oxazin-4-yl[4-[[8-[4-(4-chlorophenyl)-4-hydroxy-1-piperidyl]-[1,2,4]triazolo[1,5-a]pyridin-2-yl]amino]phenyl] methanone] | 2.7 nM
O=C(NCC1CCC2(CCNCC2)CO1)c1ccc(Nc2nc3c(N4CCC(O)(c5ccc(Cl)cc5)CC4)cccn3n2)cc1 (stereo not drawn) [Example 1-245, 4-[[8-[4-(4-chlorophenyl)-4-hydroxy-1-piperidyl]-[1,2,4]triazolo[1,5-a]pyridin-2-yl]amino]-N-(2-oxa-9-azaspiro[5.5]undecan-3-ylmethyl)benzamide] | 2.61 nM
CN1CCC(N(C)C(=O)c2ccc(Nc3nc4c(N5CCC(CCC#N)(c6ccc(Cl)cc6)CC5)cccn4n3)cc2)CC1 [Example 1-247, 4-{8-[4-(4-Chloro-phenyl)-4-(2-cyano-ethyl)-piperidin-1-yl]-1,8a-dihydro[1,2,4]triazolo[1,5-a]pyridine-2-ylamino}-N-methyl-N-(1-methyl-piperidin-4-yl)-benzamide] | 0.5 nM
CO/N=C/C1(c2ccc(Cl)cc2)CCN(c2cccn3nc(Nc4ccc(C(=O)N(C)C5CCN(C)CC5)cc4)nc23)CC1 [Example 1-250] | 3.93 nM
CCOC(=O)CC1(c2ccc(Cl)cc2)CCN(c2cccn3nc(Nc4ccc(C(=O)N(C)C5CCN(C)CC5)cc4)nc23)CC1 [Example 1-254] | 0.64 nM
CN1CCC(N(C)C(=O)c2ccc(Nc3nc4c(N5CCC(CC(F)F)(c6ccc(Cl)cc6)CC5)cccn4n3)cc2)CC1 [Example 1-256, 4-([8-[4-(4-chlorophenyl)-4-(2,2-difluoroethyl)piperidin-1-yl]-[1,2,4]triazolo[1,5-a]pyridin-2-yl]amino)-N-methyl-N-(1-methylpiperidin-4-yl)benzamide] | 1.17 nM
CN1CCC(N(C)C(=O)c2ccc(Nc3nc4c(N5CCC(CC#N)(C6CCCC6)CC5)cccn4n3)cc2)CC1 [Example 1-257, 4-([8-[4-(cyanomethyl)-4-cyclopentylpiperidin-1-yl]-[1,2,4]triazolo[1,5-a]pyridin-2-yl]amino)-N-methyl-N-(1-methylpiperidin-4-yl)benzamide] | 26.6 nM
CN1CCC(N(C)C(=O)c2ccc(Nc3nc4c(N5CCC(C)(C(=O)NCc6ccccc6)CC5)cccn4n3)cc2)CC1 [Example 1-259, N-benzyl-4-methyl-1-[2-[4-[methyl-(1-methyl-4-piperidyl)carbamoyl]anilino]-[1,2,4]triazolo[1,5-a]pyridin-8-yl]piperidine-4-carboxamide] | 26.3 nM
CC(=O)NC1(C)CCN(c2cccn3nc(Nc4ccc(C(=O)N(C)C5CCN(C)CC5)cc4)nc23)CC1 [Example 1-260, 4-[[8-(4-acetamido-4-methylpiperidin-1-yl)-[1,2,4]-triazolo[1,5-a]pyridin-2-yl]amino]-N-methyl-N-(1-methylpiperidin-4-yl)benzamide] | 106 nM
CN1CCC(N(C)C(=O)c2ccc(Nc3nc4c(N5CCC(C)(N(C)S(=O)(=O)c6ccccc6)CC5)cccn4n3)cc2)CC1 [Example 1-261] | 41.5 nM
CN1CCC(N(C)C(=O)c2ccc(Nc3nc4c(Oc5ccc6oc(=O)n(Cc7ccccc7)c6c5)cccn4n3)cc2)CC1 [Example 1-264, 4-([8-[(3-benzyl-2-oxo-2,3-dihydro-1,3-benzoxazol-5-yl)oxy]-[1,2,4]triazolo[1,5-a]pyridin-2-yl]amino)-N-methyl-N-(1-methylpiperidin-4-yl)benzamide] | 134 nM
CN1CCC(N(C)C(=O)c2ccc(Nc3nc4c(N5CCC(CN)(c6ccc(Cl)cc6)CC5)cccn4n3)cc2)CC1 [Example 1-265, 4-([8-[4-(aminomethyl)-4-(4-chlorophenyl)piperidin-1-yl]-[1,2,4]triazolo[1,5-a]-pyridin-2-yl]amino)-N-methyl-N-(1-methylpiperidin-4-yl)benzamide] | 0.84 nM
CN1CCC(N(C)C(=O)c2ccc(Nc3nc4c(N5CCC(CO)(CNCC(F)(F)F)CC5)cccn4n3)cc2)CC1 [Example 1-266, 4-([8-[4-(hydroxymethyl)-4-[[(2,2,2-trifluoroethyl)amino]methyl]piperidin-1-yl]-[1,2,4]triazolo[1,5-a]pyridin-2-yl]amino)-N-methyl-N-(1-methylpiperidin-4-yl)benzamide] | 8.8 nM
CC(=O)NCC1(c2ccc(Cl)cc2)CCN(c2cccn3nc(Nc4ccc(C(=O)N(C)C5CCN(C)CC5)cc4)nc23)CC1 [Example 1-268, 4-([8-[4-(4-chlorophenyl)-4-(acetamidomethyl)piperidin-1-yl]-[1,2,4]triazolo[1,5-a]pyridin-2-yl]amino)-N-methyl-N-(1-methylpiperidin-4-yl)benzamide] | 0.71 nM
